In all, about 150,000 compounds went through this assay and about 540 (0.36%) showed an effect of 50% or more. The list shows a part of the results.
These compounds were tested on Plasmodium falciparum (assay: Primary screen in NF54 nanoGlo assay, in single point, at 2uM, 72h; a lower Z score goes with more inhibition). Conditions: timepoint 72 hour.
Type: functional, Erythrocyte
For `CC12CCC(C(=O)N3CCN(C(=O)C45CCC(C)(C(=O)C4)C5(C)C)CC3)(CC1=O)C2(C)C`, the “% Inhibition” value was -6% and the Z score was 0.77.
In the case of `Cc1c(OCC(=O)Nc2ccc3c(c2)OCO3)c(=O)ccn1CCO`, the “% Inhibition” value is reported as -3% and the Z score is reported as 0.38.
In the case of `Cc1cccc(C)c1NC(=O)C(=O)NCCc1nccn1C(F)F`, the “% Inhibition” value is reported as 1% and the Z score is reported as -0.08.
`CN(C)CCN(C(=O)[C@H]1CC1(Cl)Cl)c1ccc(Br)cn1` was tested, and the “% Inhibition” value was 0% and the Z score was 0.04.
For `CCC(=O)Nc1ccc(-n2nc(OCCc3ccc(OC)cc3)nc2-c2ccccc2F)cc1`, the “% Inhibition” value was -25% and the Z score was 2.23.
For `CN(Cc1csc(-c2ccccc2)n1)c1nc(CO)cs1`, the “% Inhibition” value was -3% and the Z score was 0.38.
With `CC[C@H](C)NC(=O)N1CCc2c(c(-c3nc(Cc4ccccc4)no3)nn2C)C1` the “% Inhibition” value was -2% and the Z score was 0.36.
For `CC(C)n1ncc(NC(=O)NC[C@@H](CO)C2CC2)c1C1CC1`, the “% Inhibition” value was -3% and the Z score was 0.26.
In the case of `O=C(NCCn1ncccc1=O)c1c[nH]c(=O)n(Cc2ccccc2Cl)c1=O`, the “% Inhibition” value is reported as -17% and the Z score is reported as 2.88.
With `COc1ccc(C(=O)N2CCC(c3nccn3CC3CCC3)CC2)c(F)c1F` the “% Inhibition” value was -19% and the Z score was 2.74.
`O=C(Nc1cccnc1)Nc1cccnc1` was tested, and the “% Inhibition” value was -4% and the Z score was 0.54.
`CCCc1cc(C(=O)N2CCC3(CC2)C(=O)NC(=O)N3CC)n(C)n1` was tested, and the “% Inhibition” value was -12% and the Z score was 1.13.
In the case of `COc1cc(CNC2CCCCCCC2)cc(Cl)c1OCC(N)=O`, the “% Inhibition” value is reported as -4% and the Z score is reported as 0.43.
For `Cc1ccccc1-n1nc(CN2CCOCC2)c(-c2ccccc2)c1N`, the “% Inhibition” value was -7% and the Z score was 0.8.
In the case of `COCCN1CC[C@H](C(=O)Nc2ccnn2C2CCCC2)C1`, the “% Inhibition” value is reported as -13% and the Z score is reported as 2.41.
With `Cc1ccccc1OC1(C(=O)O)CCN(C(=O)[C@@H]2CCCCN2)CC1` the “% Inhibition” value was 5% and the Z score was -0.83.
In the case of `O=C(NCCc1ccoc1)c1ccccc1Cl`, the “% Inhibition” value is reported as -4% and the Z score is reported as 0.66.
With `COC[C@H]1CN(C2CCC2)CC12CCN(C(=O)c1ccccc1C)CC2` the “% Inhibition” value was 8% and the Z score was -0.91.
For `Cc1nnsc1C(=O)NC1CCCCCCC1`, the “% Inhibition” value was 3% and the Z score was -0.36.
With `Cc1cc(C)c(OCCNC(=O)N2CCC3(CCC(=O)N3)CC2)c(C)c1` the “% Inhibition” value was -12% and the Z score was 1.34.
`CC1CC(NC(c2cccc(Cl)c2)C(F)F)CCO1` (configuration not stated) was tested, and the “% Inhibition” value was -6% and the Z score was 0.69.
With `Cc1noc(C)c1CCC(=O)NC1(c2cccs2)CCOCC1` the “% Inhibition” value was 4% and the Z score was -0.56.
`CN(C[C@@H]1CCCN1C(=O)OC(C)(C)C)C1(C(N)=O)CCCC1` was tested, and the “% Inhibition” value was -9% and the Z score was 0.91.
With `CCn1cc(Cl)c(C(=O)N(C)CC2(C)CCOCC2)n1` the “% Inhibition” value was 8% and the Z score was -1.43.
`CCOC(=O)CN(C)C(=O)C1c2c[nH]nc2CCC1C` (configuration not stated) was tested, and the “% Inhibition” value was 5% and the Z score was -0.67.
In the case of `CN(CCc1ccccn1)Cc1cn2cc(Cl)ccc2n1`, the “% Inhibition” value is reported as 1% and the Z score is reported as -0.07.
In the case of `COC(=O)[C@@H](NC(=O)c1cc(-c2cccc(Cl)c2)nn1C)C(C)C`, the “% Inhibition” value is reported as -11% and the Z score is reported as 1.61.
In the case of `CN1CCC(CCO)(NC(=O)c2ccc(F)c3occc23)CC1`, the “% Inhibition” value is reported as 4% and the Z score is reported as -0.48.
`COc1ccc(C(=O)N[C@H]2CCOC[C@@H]2OCc2ccccc2)c(OC)c1` was tested, and the “% Inhibition” value was -1% and the Z score was 0.16.
In the case of `CN(CCc1noc(-c2cc3cc(Cl)ccc3[nH]2)n1)C(=O)c1ccc(N(C)C)cc1`, the “% Inhibition” value is reported as -4% and the Z score is reported as 0.66.
With `COc1ccc(NC(=O)c2occc2-c2ccccc2)cc1S(=O)(=O)N1CCCCC1` the “% Inhibition” value was -22% and the Z score was 1.89.
In the case of `Cc1cc(N2CCN(Cc3ccc(C#CC(C)(C)O)s3)CC2)cc(C)n1`, the “% Inhibition” value is reported as -2% and the Z score is reported as 0.31.
With `O[C@H]1CN(Cc2nccs2)C[C@@H]1N1CCCCC1` the “% Inhibition” value was 9% and the Z score was -0.92.
In the case of `COc1cc(-c2nc(Cc3ccc4c(c3)OCO4)no2)ccc1O`, the “% Inhibition” value is reported as -6% and the Z score is reported as 1.09.
For `CCCN(CCc1nc(-c2ccccc2)no1)C(=O)c1cccs1`, the “% Inhibition” value was -17% and the Z score was 2.09.
In the case of `O=C(NCc1cncc(-c2ccoc2)c1)C1CCCC1`, the “% Inhibition” value is reported as 11% and the Z score is reported as -1.4.
`CC(C)c1cc(C(=O)N2CCCC2)nn1C` was tested, and the “% Inhibition” value was -7% and the Z score was 0.99.
With `C[C@@H]1N(CCC2(O)CCC2)CCOC1(C)C` the “% Inhibition” value was -3% and the Z score was 0.28.
For `Cc1noc(C2(NC(=O)Nc3ncn(C(C)(C)C)n3)CCOCC2)n1`, the “% Inhibition” value was -11% and the Z score was 2.29.
`Cc1ccc(C(=O)N2CCCN(C(=O)CC[C@@H]3NC(=O)NC3=O)CC2)s1` was tested, and the “% Inhibition” value was -8% and the Z score was 1.17.
With `O=C(c1ccc(F)cc1Cl)N1CCCC(CN2CCC(O)C2)C1` (configuration not stated) the “% Inhibition” value was 1% and the Z score was -0.18.
For `Cc1nc(CC(=O)N2CCN(c3nonc3C)CC2)cs1`, the “% Inhibition” value was -10% and the Z score was 1.05.
With `O=C(NC[C@H]1CCCN(c2cnsn2)C1)c1ccccn1` the “% Inhibition” value was -4% and the Z score was 0.79.
With `CCN1CCN(Cc2cc(C)cc(CN(C)[C@@H](C)c3cccs3)c2C)CC1` the “% Inhibition” value was -5% and the Z score was 0.68.
In the case of `Cc1noc(C)c1CN1C(=O)N[C@@]2(CCCCc3ccccc32)C1=O`, the “% Inhibition” value is reported as -10% and the Z score is reported as 1.29.
`Cc1ncsc1CNc1nc(-c2cccnc2)no1` was tested, and the “% Inhibition” value was 0% and the Z score was 0.03.
For `C[C@H](NS(C)(=O)=O)C(=O)N(Cc1ccccc1F)C1CCC1`, the “% Inhibition” value was -1% and the Z score was 0.15.
In the case of `COc1cc(C(=O)O)cc(C(=O)NCc2ccc3c(c2)nc(C)n3C)c1`, the “% Inhibition” value is reported as -1% and the Z score is reported as 0.25.
With `O=S(=O)(N[C@H]1CCN(CC(F)(F)F)C1)c1ccc2cn[nH]c2c1` the “% Inhibition” value was -9% and the Z score was 1.34.
In the case of `CC(=O)N[C@H]1[C@H](Oc2ccc3ccccc3c2)O[C@@H]2COC(C)(C)O[C@H]2[C@@H]1O`, the “% Inhibition” value is reported as -10% and the Z score is reported as 0.9.
For `O=C(CN1C(=O)CCc2cc(Br)ccc21)Nc1ccc(CN2CCCCC2)cc1`, the “% Inhibition” value was -5% and the Z score was 0.65.
In the case of `CC[C@H](C)NC(=O)COc1ccc(Cl)cc1C(N)=O`, the “% Inhibition” value is reported as -8% and the Z score is reported as 0.84.
With `Cc1ccc(N=C2N[C@@](c3ccccc3)(C(F)(F)F)Oc3ccccc3O2)cc1` the “% Inhibition” value was 18% and the Z score was -2.73.
`O=C(NC1CC1)c1cn2c(n1)C(=O)N[C@H](c1ccc(F)cc1)C2` was tested, and the “% Inhibition” value was -19% and the Z score was 3.57.
In the case of `CNS(=O)(=O)N1CCC[C@H](Nc2cccc(Br)c2)C1`, the “% Inhibition” value is reported as 1% and the Z score is reported as -0.12.
`CN(C)C(=O)CN(C)c1ccc(F)cc1S(=O)(=O)C(F)(F)F` was tested, and the “% Inhibition” value was -10% and the Z score was 1.96.
With `O=C(NCc1ccc(Cn2ccnc2)cc1)C1CCCCC1C(=O)N1CCc2ccccc21` (configuration not stated) the “% Inhibition” value was 33% and the Z score was -3.7.
`O=C(Cn1c(=O)n(CCc2cccs2)c(=O)c2sccc21)N1CCN(Cc2ccccc2)CC1` was tested, and the “% Inhibition” value was 0% and the Z score was 0.05.
In the case of `Cc1n[nH]c(C)c1CNCc1cccnc1N1CCOCC1`, the “% Inhibition” value is reported as 2% and the Z score is reported as -0.35.
For `CCOc1ncccc1-c1nc(C(C)(C)NC(=O)OC(C)(C)C)no1`, the “% Inhibition” value was -13% and the Z score was 2.59.
With `COCc1c(C(=O)N(C)[C@H]2CCOC2)cnn1-c1ncc2c(n1)-c1ccccc1CCC2` the “% Inhibition” value was -7% and the Z score was 0.88.
For `COc1ccc(Cl)cc1NC(=O)CN1c2ccccc2C[C@H]1C(N)=O`, the “% Inhibition” value was -11% and the Z score was 1.8.
`Cn1cc(CNc2ccc(-n3nccc3C(F)(F)F)cc2)cn1` was tested, and the “% Inhibition” value was -14% and the Z score was 1.55.
`CC(C)Oc1cccc2c1c(NC(=O)N(C)C)nn2-c1cccc(F)c1` was tested, and the “% Inhibition” value was 7% and the Z score was -1.34.
For `COc1ccsc1S(=O)(=O)N(C)Cc1cnc(C)s1`, the “% Inhibition” value was -10% and the Z score was 1.22.
For `Cc1ccn(C)c(=O)c1NC(=O)N1CCCC[C@H]1C(C)C`, the “% Inhibition” value was -18% and the Z score was 1.58.
With `Cn1cc(-c2noc(C3(C#N)CCCCC3)n2)nn1` the “% Inhibition” value was 34% and the Z score was -3.82.
For `O=C(NCc1cccc(F)c1)C1CCC(c2ccccc2)N(C(=O)Cc2cccs2)C1` (configuration not stated), the “% Inhibition” value was 4% and the Z score was -0.45.
With `Cc1cnc(C2CC2)n1[C@H]1CCN(C(=O)CCc2c[nH]c3ccccc23)C1` the “% Inhibition” value was -20% and the Z score was 2.54.
For `COc1ccc2cc(C(=O)NCc3cnc4cnccn34)n(C)c2c1`, the “% Inhibition” value was -5% and the Z score was 0.61.
`Cc1cccc2c1C(C)CC2NCc1ncnn1C` (configuration not stated) was tested, and the “% Inhibition” value was -13% and the Z score was 2.03.
In the case of `CC(C)C(C(=O)N1CCCC1C(=O)O)n1c(=O)[nH]c2ccccc2c1=O` (configuration not stated), the “% Inhibition” value is reported as -5% and the Z score is reported as 0.78.
With `CC1CN(C(=O)C2CCc3[nH]nnc3C2)CCN1c1ccccc1F` (configuration not stated) the “% Inhibition” value was -8% and the Z score was 0.72.
`COc1ccc(NC(=O)[C@@]23CCC=C2N(C2CCCC2)C(=O)CC3)cc1` was tested, and the “% Inhibition” value was 0% and the Z score was -0.04.
In the case of `CN(C)C(=O)Cn1cccc(NC(=O)CNC(=O)OCc2ccccc2)c1=O`, the “% Inhibition” value is reported as -11% and the Z score is reported as 1.25.
In the case of `Cc1nc(C)c(-c2cccc3c2O[C@@H](CN)C3)s1`, the “% Inhibition” value is reported as -5% and the Z score is reported as 0.68.
`CC1(C)CN(C(=O)Cn2nccn2)C[C@]1(C)O` was tested, and the “% Inhibition” value was -8% and the Z score was 0.73.
For `CC(O)CC(C)CNCc1sccc1Cl` (configuration not stated), the “% Inhibition” value was 6% and the Z score was -0.81.
For `Cc1csc(NC(=O)C[C@H](C)n2cccn2)n1`, the “% Inhibition” value was -1% and the Z score was 0.17.
`O=C(c1ccccc1F)N1CCC[C@H](CN2CCCC2)CC1` was tested, and the “% Inhibition” value was -4% and the Z score was 0.64.
For `CN1CCN(C(=O)[C@@H]2Cc3ccccc3O2)C(C)(C)C1=O`, the “% Inhibition” value was -6% and the Z score was 1.23.
`Cc1ccc(S(=O)(=O)N2CCC[C@H](Cn3c(C)nc4cccnc43)C2)cc1F` was tested, and the “% Inhibition” value was -2% and the Z score was 0.32.
With `COc1cccc(CN2C(=O)NC3(CCC4(CC3)OCCO4)C2=O)c1Cl` the “% Inhibition” value was -10% and the Z score was 1.83.
`CC1CCN(c2ncnc(Oc3ccccc3F)c2N)CC1` was tested, and the “% Inhibition” value was 6% and the Z score was -1.23.
`Cc1ncsc1C(=O)N1CCCCCC1` was tested, and the “% Inhibition” value was -2% and the Z score was 0.28.
In the case of `CCn1nc(C)cc1C(=O)N1CCCC[C@@H]1CCn1ccnc1`, the “% Inhibition” value is reported as -8% and the Z score is reported as 1.53.

Reference: ChEMBL document CHEMBL4888484, “Replenishing the malaria drug discovery pipeline: Screening and hit evaluation of the MMV Hit Generation Library 1 (HGL1) against asexual blood stage Plasmodium falciparum ,using a nano luciferase reporter read-out” (2022)
